This note sets out measurements from the RNAGym collection of RNA variant scans (doi:10.1073/pnas.2313332121).

The labels stand for the following.
B1: TPR 5TU (parent)
chain: GGAUCUUCUCGAUCUAACAAAAAAGACAAAUCUGCCACAAAGCUUGAGAGCAUCUUCGGAUGCAGAGGCGGCAGCCUUCGGUGGCGCGAUAGCGCCAACGUUCUCAACUAUGACACGCAAAACGCGUGCUCCGUUGAAUGGAGUUUAUCAUG

Variants at the floor of the assay are shown more often than the library holds them.

Variants of B1 are the subject of the data set. As to the kind of experiment: polymerase ribozyme fitness, log enrichment relative to wild type (log ratio); higher = more active; in vitro selection for triplet polymerase activity. The gist of the method: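 Only genotypes with ≥10 input reads and ≥1 read per output were kept after Illumina sequencing of input and output libraries. These libraries were PCR-built, transcribed mutants of each subunit of a heterodimeric triplet polymerase ribozyme, each put through one triplicate in vitro selection round with frozen incubation at −7 °C, gel excision of extended constructs, streptavidin-bead capture and RT-PCR. Fitness is a logarithmic ratio of genotype enrichment to wild-type enrichment, from inverse-variance-weighted replicate averages, with the logarithm in base 2.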
On to GGAUCUUCUCGAUCUAACAAAAUAGACAAAUCUGCCACAAAGCUUGAGAGCAUCUUCGGAUGCAGAGGCGGCAGCCUUCGGUGACGCGAGAGCGCCAACGUUCUCAACUAUGACACGCAAAACGCUUGCUCCAUUGAAUGGAGUUUAUCAUG, for which the “polymerase ribozyme fitness (log ratio)” value was at most -4.2. With GGAUCUUCUCGAUCUAACAAAAUAGACAAAUCUGCCACAAAGCUUGAGAGCAUCUUCGGAUGCAGAGGCGGCAGCCUACGGUGGCGCGAUAGAGCCAACGUUCUCAACUAUGACACGCAAAACGCGUGCUCCGUUGAAUGGAGUUUAUCAUG, the “polymerase ribozyme fitness (log ratio)” value is at most -4.2.

GGAUCUUCUCGAUCUAACAAAAUAGACAAAUCUGCCACAAAGCUUGAGAGCAUCUUCGGAUCCAGAGGCGACAGCUUUCGGUGGCGCGAUAGCGCCAACGUUCUCAACUAUGACACGCAAAACGCGUGCUCCGUUGAAUGGAGUUUAUCAUG: the “polymerase ribozyme fitness (log ratio)” value is at most -4.2. The value for GGAUCUUCUCGAUCUAACAAAAUAGACAAAUCUGCCACAAAGCUUGAGAGCAACUUCGGAUGCAGAGGCGGCAGCCUUCGGUGGCGCGAUAGCGCCAACGUUCUCAACUAUGACACGCAAAACGCGUGCUCCGUUGAAUGGAGUUUAUCAUG was at most -4.2; that for GGAUCUUCUCGAUCUAACAAAAUAGACAAAUCUGCCACAAAGCUUGAGAGCAGCUUCGGAUGCAGAGGCGGCAGCCUUCGGUGGCGCGAUAGCGCCAACGUUCUCAACUAUGACACGCAAAACGCGUGCUCCGUUGAAUGGAGUUUAUCAUG was at most -4.2; that for GGAUCUUCUCGAUCUAACAAAAUAGACAAAUCUGCCACAAAGCUUGAGAGCAUCUUCGGAUGCAGAGGCGGCAGCCUUCGGUGGCGCGAUAGCACCAACGUUCUAAACUAUGACACGCAAAACGCGUGCUCCUUUGAAUGGAGUUUAUCAUG was at most -4.2. Regarding GGAUCUUCUCGAUCUAACAAAAUAGACAAAUCUGCCACAAAGCUUGAGAGCAUCUUCGGAUGCAGAGGCAGCAGCCUUCGGUGGCGCGAUAGCGCCAACUUUCUCAACUAUGACAUGCAAAACGCGUGCUCCGUAGAAUGGAGUUUAUCAUG, the “polymerase ribozyme fitness (log ratio)” value was at most -4.2. With GGAUCUUCUCGAUCUAACAAAAUAGACAAAUCUGCCACAAAGCUUGAAAGCAUCUUCGGAUGCAGAGGCGGCAGCCUUCGGUGGUGCGAUAGCGCCAACGUUCUCAACUAUGACACGCAAAACGCGUGCUCCGUUGAAUGGAGUUUAUCAUG the figure was at most -4.2; with GGAUCUUCUCGAUCUAACAAAAUAGACAAAUCUGCCACAAAGCUUGAGAGCAUCUUCGGAUGCAGAGGCGGCAGCCUUCGGUGGCGCUAUAGCGUCAACGUUCUCAACUAUGACACGCAAAACGCGUGCUCCGUUGAAUGGAGUUUAUAAUG, at most -4.2; with GGAUCUUCUCGAUCUAACAAAAUAGACAAAUCUGCCACAAAGCUUGAGAGCAUCUACGGAUGCAGAGGCGGCAGCCUUCAGUGGCGCGAUAGCGCCAACGUUCUCAACUAUGACACGCAAAACGCGUGCUCCGUUGAAUGGAGUUUAUCAUG, at most -4.2. With GGAUCUUCUCGAUCUAACAAAAUAGACAAAUCUGCCACAAAGCUUGAGAGCAUCUACGGAUGCAGAGGCGGCAGCCUUCGGUGGCGCGAUGGCGCCAACGUUCUCAACUAUGACACGCAAAACGCGUGCUCCGUUGAAUGGAGUUUAUCAUG the figure was at most -4.2.

As to GGAUCUUCUCGAUCUAACAAAAUAGACAAAUCUGCCACAAAGCUUGAGAGCAUCUUCGGAAGCAGAGGCGGCAGCCUUCGGUGGCGCGAUAGCGCCAACGUUCUCAUCUAUGACGCGCAAAACGCGUGCUCCGUUGAAUGGAGUUUAUCAUG, the “polymerase ribozyme fitness (log ratio)” value is at most -4.2. As to GGAUCUUCUCGAUCUAACAAAAUAGACAAAUCUGCCACAAAGCUUGAGAGCAUCAUCAGAUGCAGAGGCGGCAGCCUUCGGUGGUGCGAUAGCGCCAACGUUCUCAACUAUGACACGCAAAACGCGUGCUCCGUUGAAUGGAGUUUAUCAUG, the “polymerase ribozyme fitness (log ratio)” value was at most -4.2. As to GGAUCUUCUCGAUCUAACAAAAUAGACAAACCUGCCACAAAGCUUGAGAGCAUCUUCGGAUGCAGAGGCGGCAGCCUUCGGUGGCGGGAUAGCGCCAACGUUCGCAACUAUGACACGCAAAACGCGUGCUCCGUUGAAUGGAGUUUAUCAUG, the “polymerase ribozyme fitness (log ratio)” value was at most -4.2. With GGAUCUUCUCGAUCUAACAAAAUAGACAAAUCUGCCACAAAGCUUGAGAGCAUCUUCGGAUGCAGAGGCGGCAGCCUUCGGUGGCACGAUAGCGCCAAGGUUCUCAACUAUGACACGCAAAACGCGUGCUCCGUUGUAUGGAGUUUAUCAUG, the “polymerase ribozyme fitness (log ratio)” value was at most -4.2. In the case of GGAUCUUCUCGAUCUAACAAAAUAGACAAAUCUGCCACAAAGCUUGAGAGCAUCUACGGAUGCAGAGGCGGCUGCCUUCGGUGGCACGAUAGGGCCAACGUUCUCAACUAUGACACGCAAAACGCGUGCUGCGUUGAACGGAGUUUAUCAUG, the “polymerase ribozyme fitness (log ratio)” value is at most -4.2.

On to GGAUCUUCUCGAUCUAACAAAAUAGACAAAUCUGCCACAAAGCUUGAGAGCAUCUUCGGAUCCAGAGGCGGCAGCCUUCGGUGUGGCGAUAGCGCCAACGUUCUCAACUAUGACACGCAAAACGCGUGCUCGGUUGAAUGGAGUUUAUCAUG, for which the “polymerase ribozyme fitness (log ratio)” value was at most -4.2.

As to GGAUCUUCUCGAUCUAACAAAAACGUCAAAACUGCCACAAAGCUUGAGAGCAUCUUCGGAUGCAGAGUCGGCAGCCUUCGGUGGCGAGGUAGCGCCAGCGUUCUCAACUAUGACACGCAAAACGCGUGCUCGGUUGAAUGGAGUUUAUCAUG, the “polymerase ribozyme fitness (log ratio)” value was at most -4.2. The value for GGAUCUUCUCGAUCUAACAAAAUAGACAAAUCUGCCACAAAGCUUGAGAGCAUCUUCGGAUGCAGAGGCGGCAGCCUUCGGUAGCGCGAUAGCGCCAACGUUCUCAACUAUGACACGCAAAACGCGUGCUCCGUUGAAUGGAGUUUAUCAUG was at most -4.2; that for GGAUCUUCUCGAUCUAACAAAAUAGACAAAGCUGCCACAAAGCUAGAGAGCAUCUUCGGAUGCAGAGGCGGCAGCCUACGGUCGCGCGAUAGCGACAACGUUCUCAACUAUGACACGCAAAACGCGUGCUCCGUUGAAUGGAGUUUAUCAUG was at most -4.2; that for GGAUCUUCUCGAUCUAACAAAAUAGACAAAUCUGCCACAAAGCUUUAGAGCAUCUUCGGAUGCAGAGGCGGCAGCCUUCGGCGGCACGAUAGCGCCAACGUUCUCAACUAUGACACGCAAAACGCGUGCUCCGUUAAAUGGAGUUUAUCAUG was at most -4.2. As for GGAUCUUCUCGAUCUAACAAAAUAGACAAAUCUGCCACAAAGCUUGAGAGCAGCUUCGGAUGCAGAGGCGGCAGCCUUCGGUGGCGCGAUAGAGCCAACGUUCUCAACUAUGACACGCAAAACGCGUGCUCCGUUGAAUGGAGUUUAUCAUG, the “polymerase ribozyme fitness (log ratio)” value is at most -4.2. With GGAUCUUCUCGAUCUAACAAAAUAGACAAAUCUGCCACAAAGCUUGAGAGCAUCUUCGGAUGCAGAGGCGACAGCCUUUGGUGGCGCGAUAGCCCCAACGUUCUCAAUGAUGACCCGCAAAACGCGUGCUCCGUUGAAUGGACUUUAUCAUG the figure was at most -4.2; with GGAUCUUCUCGAUCUAACAAAAUAGACAAAUCUGCCACAAAGCUUGAGAGCAUCUUCGGAUGCAGAGGCGGCAGCCGUUGGUGGCGCGAUAGUGCCAACGUUCUCAACUAUGACACGCAAGACAUGUGCUCCGUUGAAUGGAGUUUAUCAUG, at most -4.2; with GGAUCUUCUCGAUCUAACAAAAUAGACAAAUCUGCCACAAAGCGUGAGAGCAUCUUCGGAUGCAGAGGCGGCAGCCUUCGGUGGCGCGAUAGCCCCAACGUUCUCAACUAUGACACGCAAAACGCGUGCUCCGUUGAAUGGAGUUUAUCAUG, at most -4.2. The value for GGAUCUUCUCGAUCUAACAAAAUAGACAAAUCUGCCACAAAGCUUGAGAACAUCUUCGGAUGCAGAGGCGGCAGCCUUCGGUCGCGCGAUACCGAUAACGUUCUCAACGAUGACACGCAAAACGCGUGCUCCGUUGAAUGGAGUUUAUCAUG was at most -4.2. For GGAUCUUCUCGAUCUAACAAAAUAGACAAAUCUGCCACAAAGCUUGAGAGCAUCUUCGCAUGCAGAGGCGGCAGCCUUAGGUGGCGCGAUAGUGCCAACGUUCUCAACUAUGACACGCAAAACGCGUGCUCCGUUGAAUGGAGUUUAUCAUG, the “polymerase ribozyme fitness (log ratio)” value was at most -4.2. Take GGAUCUUCUCGAUCUAACAAAAUAGACAAAUCUGCCACAAAGCUUGAGAGCAUCUUCGGAUGCAGAGGCGGCAGCCUUCGGUGGCGCCAUAGCGCCAUCGUUCUCAACUAUGACACGCAAAACGCGUGCUCCGUUGAAUGGAGUUUAUCCUG: the “polymerase ribozyme fitness (log ratio)” value was at most -4.2. With GGAUCUUCUCGAUCUAACAAAAUAGACAAAUCUGCCACAAAGCUUGAGAGCAUCUUCGGAUGCAGAGGCGGCAGCCUUCGGUGGCGCGAUAUCGCCAACGUUCUCAACUAUGACGCGCAAAACGCGUGCUCCGUUGAAUGGAGUUUAUGAUG, the “polymerase ribozyme fitness (log ratio)” value was at most -4.2. With GGAUCUUCUCGAUCUAACAAAAUAGACAAAUCUGCCACAAAGCUUGAGAGCAUCUUCGGAUGCAGAGGCGGCAGCCUUCGGUGGCACGAUAGCGCCAACGUUCUCAACUAUGACACGCAAAACGCGUGCUCCGUUGAAUGGAGUUUAUCAUG the figure was at most -4.2; with GGAUCUUCUCGAUCUAACAAAAUAGACAAAUCUGCCACAAAGCUUGAGAGCAUCGUCGGAUGCAGAGGCGGCAGCCUUCGGUGGCGUGAUAGCGCCAACGUUCUCAACUAUGACACGCAAAACGCGUGCUCCGUUGAAUGGAGUGUAUCAUG, at most -4.2; with GGAUCUUCUCGAUCUAACAAAAUAGACAAAACUGCCACAAAGCUUGAGAGCAACUUCGGAUGCAGAGGCGGCAGCCUUCGGUGUCUGGAUAGCGCCAACGUUCUCAACUAUGAUACGCAAAACGCGUGCUCCGUUGAAUAGAGUUUAUCAUG, at most -4.2. In the case of GGAUCUUCUCGAUCUAACAAAAUAGACAAAUCUGCCACAAAGCUUGACAGCAUCUUCGGAUGCAGAGGCGGCAGCGUUUGGUGGCGGGUUAGCGCCAACGUUCUCAACUAUGACACGCAAAACGCGUGCUCCGUGGAAUGGAGUUUAUAAUG, the “polymerase ribozyme fitness (log ratio)” value is at most -4.2. With GGAUCUUCUCGAUCUAACAAAAUAGACAAAUCUGCCACAAAGCUUGAGAUCAUCUUCGGAUGCAGAGGCGGCAGCCUUCGGUGGCGCGAUAGCGCCAAGGUUCGCAACUAUGACACGCAAAACGCGUGCUCCGUUGAAUGGAGUUUAUCAUG, the “polymerase ribozyme fitness (log ratio)” value was at most -4.2.

On to GGAUCUUCUCGAUCUAACAAAAACGACCAAUCUGCCACAAGACUUGAGAGCAUCUUCGGAUGCAGAGGCGGCAGCCUUCGGUGGCGCGAUAGAGCCAACGUUCUCAACUAUGACACGCAAAACGCGUGCUCCGUUGAAUGGAGUUUAUCAUG, for which the “polymerase ribozyme fitness (log ratio)” value was at most -4.2. Regarding GGAUCUUCUCGAUCUAACAAAAACGACGAAUCUGCCACAAAGAUUGAGAGCAUCUUCUGAUGCAGAGGCGGCUGCCUUCGGUGGCUCGAUAGCGCCAACGUUCUCAACUAUGACACGCAAAACGCGUGCUCCGUUGAAUGGAGUUUAACAUG, the “polymerase ribozyme fitness (log ratio)” value is at most -4.2. On to GGAUCUUCUCGAUCUAACAAAAACGGCAAUUCUGCCAUAAAGCUUGAGAGCAUCUACGGAUGCAGGGGCGGCAGCCUUCUGUGGCGCGAUAGCGCCAACGUUCUAAACUAUGACACGCAAAACGCGUGCUCCGUUGAAUGGAGUUUAUCAUU, for which the “polymerase ribozyme fitness (log ratio)” value is at most -4.2.

GGAUCUUCUCGAUCUAACAAAAUAGACAAAUCUGCCACAAAGCUUGAGAGCAUCUUCGGAUGCAGAGGCGGCAGCCUUCGGUGGCGCUAUAGCGCCAACGUUCUCUACUAUGACACGCAAAACGCGUGCUCCGUUGAUUGGAGUUUAUCAUG: the “polymerase ribozyme fitness (log ratio)” value was at most -4.2.
